Test results from patent publication US11548942B2, “Methods of treating a wasting syndrome, increasing growth hormone levels, and increasing GHSR activity with a LEAP2 antibody” (NGM Biopharmaceuticals, Inc., priority 2017, dated 2023).

Target: T1, endogenous LEAP2 (Mus musculus, UniProt Q91V13)
T1 construct: The mature form of LEAP2 found in circulation is a 40 amino acid cationic bicyclic peptide; from tissue; host or cells: live fasted mice; circulating endogenous LEAP2
T1 sequence (Q91V13 37-76): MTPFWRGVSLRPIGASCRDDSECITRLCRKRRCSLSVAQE
Test: Growth hormone release after fasting and anti-LEAP2 antibody treatment
Assay type: in vivo, mice
Settings: 10 mg/kg i.p. after 24 hour fasting
Method: FIG. 10C illustrates the experimental design for evaluating the impact of anti-LEAP2 antibodies on growth hormone release. Following a 24 hour fasting period, a baseline blood sample was taken, and anti-LEAP2 antibodies (10 mg/kg) were administered by intraperitoneal injection. Growth hormone levels were determined at 5, 10, 30, 60, 90, and 120 minutes post-injection.

B1: M2: mouse hybridoma anti-LEAP2 monoclonal antibody, VH SEQ ID NO:7, VL SEQ ID NO:8; M1 and M2 have identical sequences (antibody, V domains shown)
VH: EVQLQQSGTVLARPGASVKMSCKASGYTFTSYWMHWVKQRPGQGLEWIGAIYPGNSDTSYKQKFKGKAKLTAVTSASTVYMELSSLTDEDSAVYYCTYGKEEYLFAMDYWGQGTSVTVSS
VL: DIVMSQSPSSLAVSVGEKVTMS[here about 80 residues without letters]GGGTKLKIK
In the case of B1, the “total amount of growth hormone released (AUC)” value is reported as “increased the total amount of growth hormone released” and the “peak of growth hormone secretion” value (versus control antibody) is reported as “increased the peak of growth hormone secretion”.
